For 32 sequences, binding signal results are on record in PMC12820563, “FoxP3 forms a head-to-head dimer in vivo and stabilizes its multimerization on adjacent microsatellites”.

The list shows a part of the results.

The target in the test is T1, MBP-FoxP1dN (Mus musculus, UniProt P58462 326-579).
T1 sequence: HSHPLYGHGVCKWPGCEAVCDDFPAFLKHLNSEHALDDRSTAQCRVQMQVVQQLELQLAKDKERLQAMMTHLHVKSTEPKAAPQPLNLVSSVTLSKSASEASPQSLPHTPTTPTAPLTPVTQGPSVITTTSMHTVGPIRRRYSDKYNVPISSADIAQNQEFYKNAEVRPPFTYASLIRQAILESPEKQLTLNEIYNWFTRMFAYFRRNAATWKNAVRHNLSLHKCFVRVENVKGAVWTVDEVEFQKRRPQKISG
Put plainly: PD-seq (MBP pull-down with sequencing); 20 mM Tris-HCl pH 7.5, 100 mM NaCl, 1.5 mM MgCl2, 0.4 uM protein, 0.1 uM dsDNA library, 30 min, room temperature, amylose pull-down; high values mean tight binding. The settings on record: protein: recombinant; tags: His6-MBP; chain copies: 2; dsDNA, one strand shown. The method in brief:
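A degenerate double-stranded DNA library, filled in with Klenow, was added at 0.1 µM to 0.4 µM His6-MBP-tagged mouse FoxP3 or FoxP1 fragment lacking the N-terminus, expressed in E. coli. Incubation lasted 30 min at room temperature in Tris pH 7.5 buffer with NaCl and MgCl2, after which complexes were collected on amylose resin, washed three times, digested with proteinase K to free the DNA, barcoded by PCR and sequenced by Illumina. Binding is the pooled-replicate reads-per-million enrichment of pull-down over input.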
Consider “GATGATTGTTCTCCCAGCTGATGAATTAGCTTGATCGAGTAAACAAATTTTCCTAATCTTTCTGTTCAAGCGCCATCTAC”, for which the binding signal is 0.848 RPM ratio (pull-down/input).

Take “GATGATTGTTCTCCCAGCTGATGAATTAATGGTATCGAGTAAACAAATTTTCCTAATCTTTCTGTTCAAGCGCCATCTAC”: the binding signal is 1.04 RPM ratio (pull-down/input).

As for “GATGATTGTTCTCCCAGCTGATGAATTCCACCAATCGAGTAAACAAATTTTCCTAATCTTTCTGTTCAAGCGCCATCTAC”, the binding signal was 0.94 RPM ratio (pull-down/input).

Turning to “GATGATTGTTCTCCCAGCTGATGAATTATACTTCTCGAGTAAACAAATTTTCCTAATCTTTCTGTTCAAGCGCCATCTAC”, the binding signal is 0.878 RPM ratio (pull-down/input).

For “GATGATTGTTCTCCCAGCTGATGAATTTGATCTATCGAGTAAACAAATTTTCCTAATCTTTCTGTTCAAGCGCCATCTAC”, the binding signal was 0.921 RPM ratio (pull-down/input).

With “GATGATTGTTCTCCCAGCTGATGAATTCACACTCTCGAGTAAACAAATTTTCCTAATCTTTCTGTTCAAGCGCCATCTAC”, the binding signal is 0.854 RPM ratio (pull-down/input).

Take “GATGATTGTTCTCCCAGCTGATGAATTGTCGACTTCGAGTAAACAAATTTTCCTAATCTTTCTGTTCAAGCGCCATCTAC”: the binding signal was 0.97 RPM ratio (pull-down/input).

For “GATGATTGTTCTCCCAGCTGATGAATTACCTGAATCGAGTAAACAAATTTTCCTAATCTTTCTGTTCAAGCGCCATCTAC”, the binding signal was 1.05 RPM ratio (pull-down/input).

As for “GATGATTGTTCTCCCAGCTGATGAATTCGTGATATCGAGTAAACAAATTTTCCTAATCTTTCTGTTCAAGCGCCATCTAC”, the binding signal is 1.02 RPM ratio (pull-down/input).

Take “GATGATTGTTCTCCCAGCTGATGAATTGGGCATGTCGAGTAAACAAATTTTCCTAATCTTTCTGTTCAAGCGCCATCTAC”: the binding signal is 0.887 RPM ratio (pull-down/input).

Consider “GATGATTGTTCTCCCAGCTGATGAATTTTGGGTCTCGAGTAAACAAATTTTCCTAATCTTTCTGTTCAAGCGCCATCTAC”, for which the binding signal was 0.795 RPM ratio (pull-down/input).

“GATGATTGTTCTCCCAGCTGATGAATTACCGGCGTCGAGTAAACAAATTTTCCTAATCTTTCTGTTCAAGCGCCATCTAC”: the binding signal was 0.93 RPM ratio (pull-down/input).

For “GATGATTGTTCTCCCAGCTGATGAATTACACTTTTCGAGTAAACAAATTTTCCTAATCTTTCTGTTCAAGCGCCATCTAC”, the binding signal is 1.34 RPM ratio (pull-down/input).

Regarding “GATGATTGTTCTCCCAGCTGATGAATTGCCACGTTCGAGTAAACAAATTTTCCTAATCTTTCTGTTCAAGCGCCATCTAC”, the binding signal is 1.04 RPM ratio (pull-down/input).

In the case of “GATGATTGTTCTCCCAGCTGATGAATTTGTATGTTCGAGTAAACAAATTTTCCTAATCTTTCTGTTCAAGCGCCATCTAC”, the binding signal is 1.67 RPM ratio (pull-down/input).

As for “GATGATTGTTCTCCCAGCTGATGAATTGTCTCCGTCGAGTAAACAAATTTTCCTAATCTTTCTGTTCAAGCGCCATCTAC”, the binding signal was 0.976 RPM ratio (pull-down/input).

On to “GATGATTGTTCTCCCAGCTGATGAATTCCCAGTTTCGAGTAAACAAATTTTCCTAATCTTTCTGTTCAAGCGCCATCTAC”, for which the binding signal was 0.799 RPM ratio (pull-down/input).

For “GATGATTGTTCTCCCAGCTGATGAATTAGTACCCTCGAGTAAACAAATTTTCCTAATCTTTCTGTTCAAGCGCCATCTAC”, the binding signal was 0.932 RPM ratio (pull-down/input).

For the sequence “GATGATTGTTCTCCCAGCTGATGAATTTACGCTCTCGAGTAAACAAATTTTCCTAATCTTTCTGTTCAAGCGCCATCTAC”, the binding signal was 1.15 RPM ratio (pull-down/input).

For “GATGATTGTTCTCCCAGCTGATGAATTCCCCGCATCGAGTAAACAAATTTTCCTAATCTTTCTGTTCAAGCGCCATCTAC”, the binding signal was 1.07 RPM ratio (pull-down/input).

On to “GATGATTGTTCTCCCAGCTGATGAATTCCAGGCATCGAGTAAACAAATTTTCCTAATCTTTCTGTTCAAGCGCCATCTAC”, for which the binding signal is 0.894 RPM ratio (pull-down/input).

As to “GATGATTGTTCTCCCAGCTGATGAATTCGGAATTTCGAGTAAACAAATTTTCCTAATCTTTCTGTTCAAGCGCCATCTAC”, the binding signal was 0.864 RPM ratio (pull-down/input).

As for “GATGATTGTTCTCCCAGCTGATGAATTATCCGCATCGAGTAAACAAATTTTCCTAATCTTTCTGTTCAAGCGCCATCTAC”, the binding signal is 1.15 RPM ratio (pull-down/input).

Turning to “GATGATTGTTCTCCCAGCTGATGAATTAGGTGCGTCGAGTAAACAAATTTTCCTAATCTTTCTGTTCAAGCGCCATCTAC”, the binding signal is 1.05 RPM ratio (pull-down/input).

For “GATGATTGTTCTCCCAGCTGATGAATTACAGTTTTCGAGTAAACAAATTTTCCTAATCTTTCTGTTCAAGCGCCATCTAC”, the binding signal is 1.31 RPM ratio (pull-down/input).

As to “GATGATTGTTCTCCCAGCTGATGAATTCAAATATTCGAGTAAACAAATTTTCCTAATCTTTCTGTTCAAGCGCCATCTAC”, the binding signal is 1.05 RPM ratio (pull-down/input).

As for “GATGATTGTTCTCCCAGCTGATGAATTTCATATATCGAGTAAACAAATTTTCCTAATCTTTCTGTTCAAGCGCCATCTAC”, the binding signal is 1.03 RPM ratio (pull-down/input).

For the sequence “GATGATTGTTCTCCCAGCTGATGAATTCTATTGATCGAGTAAACAAATTTTCCTAATCTTTCTGTTCAAGCGCCATCTAC”, the binding signal is 2.09 RPM ratio (pull-down/input).

As for “GATGATTGTTCTCCCAGCTGATGAATTTCAAAGCTCGAGTAAACAAATTTTCCTAATCTTTCTGTTCAAGCGCCATCTAC”, the binding signal is 0.801 RPM ratio (pull-down/input).

Turning to “GATGATTGTTCTCCCAGCTGATGAATTGGGAAACTCGAGTAAACAAATTTTCCTAATCTTTCTGTTCAAGCGCCATCTAC”, the binding signal was 0.889 RPM ratio (pull-down/input).

For the sequence “GATGATTGTTCTCCCAGCTGATGAATTTCGGTGGTCGAGTAAACAAATTTTCCTAATCTTTCTGTTCAAGCGCCATCTAC”, the binding signal is 0.864 RPM ratio (pull-down/input).

With “GATGATTGTTCTCCCAGCTGATGAATTCATAACGTCGAGTAAACAAATTTTCCTAATCTTTCTGTTCAAGCGCCATCTAC”, the binding signal is 1.01 RPM ratio (pull-down/input).
